Out of some 77,000 compounds screened, about 4,600 (6%) were called active. This list was built around the results that the source calls inconclusive (neither active nor inactive); the mix of calls is not that of the screen.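 How the source made its calls: active means mean inhibition above about 93%, with at least 55% of replicates each passing it (limit read from the data, passing the limit was not always enough); inconclusive means only one of those two conditions holds; inactive means neither condition holds.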
assay: T. cruzi intracellular proliferation inhibitors, primary screen, cell-based, beta-gal Tulahuen parasites, NIH3T3 host, luminescence (AID 624255); details: T. cruzi beta-gal in NIH3T3, GalScreen luminescence, 90 h; at 8.34 µM; stronger effect = higher value

SMILES | inhibition
Cc1ccc(S(=O)(=O)N2CC[C@@H]3[C@H](CO)Nc4ccc(C#Cc5ccccc5F)cc4[C@@H]32)cc1 | inactive: 84.9%
O=C(C[C@H]1CC[C@@H]2[C@H](COC[C@H](O)CN2C(=O)c2ccccc2F)O1)N1CCOCC1 | inactive: -16.1%
C[C@@H]1CN([C@H](C)CO)C(=O)c2cc(NC(=O)Nc3cccc4ccccc34)ccc2O[C@@H]1CN(C)S(=O)(=O)c1ccc(Cl)cc1 | active: 97.9%
Cc1ccc(-c2ccc3c(c2)O[C@@H](CN(C)Cc2ccccn2)[C@H](C)CN([C@@H](C)CO)S3(=O)=O)cc1 | active: 119%
CC(C)CC#Cc1ccc2c(c1)O[C@@H](CN(C)C(=O)c1ccccc1F)[C@@H](C)CN([C@@H](C)CO)S2(=O)=O | inconclusive: 89.7%
C[C@@H]1CCCCO[C@@H](CN(C)C(=O)Nc2ccc(C(F)(F)F)cc2)[C@@H](C)CN([C@H](C)CO)C(=O)c2cc(NC(=O)Cc3ccccc3)ccc2O1 | inconclusive: 115%
CC(=O)N(C)C[C@H]1[C@H](c2ccc(-c3ccccc3)cc2)[C@@H](CO)N1C(=O)C1CC1 | inconclusive: 96.5%
CNC[C@@H]1Oc2cc(C#CCC3CCCC3)ccc2S(=O)(=O)N([C@@H](C)CO)C[C@@H]1C | inconclusive: 99.8%
COc1cccc(S(=O)(=O)N(C)C[C@H]2OCc3ccccc3-c3ccccc3C(=O)N([C@H](C)CO)C[C@@H]2C)c1 | inconclusive: 99%
C[C@@H]1CN([C@@H](C)CO)C(=O)c2cccc(NS(=O)(=O)c3ccccc3)c2O[C@H]1CN(C)Cc1ccc(Oc2ccccc2)cc1 | inactive: 78%
O=C(c1ccccn1)N1CC[C@H]2[C@H](CO)Nc3ccc(-c4ccc(F)cc4)cc3[C@H]21 | inconclusive: 99.3%
N#C[C@@H]1[C@H](c2ccc(C#Cc3ccccc3F)cc2)[C@@H](CO)N1C(=O)C1CCC1 | inconclusive: 96.1%
Cc1noc(C)c1NC(=O)Nc1ccc2c(c1)CC(=O)N([C@H](C)CO)C[C@H](C)[C@H](CN(C)C(=O)Nc1ccc(F)cc1)O2 | inactive: 8.83%
C[C@@H]1CCCCO[C@@H](CN(C)C(=O)Nc2ccc(C(F)(F)F)cc2)[C@H](C)CN([C@@H](C)CO)C(=O)c2cc(NC(=O)NC3CCCCC3)ccc2O1 | inconclusive: 95.9%
C[C@@H]1CCCCO[C@H](CN(C)C)[C@H](C)CN([C@@H](C)CO)C(=O)c2cc(NC(=O)CCC(F)(F)F)ccc2O1 | inactive: 27.4%
CN1C(=O)c2cc(NC(=O)c3cnccn3)ccc2OC[C@@H]2O[C@@H](CC(=O)N[C@H]3CCN(Cc4ccccc4)C3)CC[C@H]21 | active: 109%
C[C@H]1CN([C@@H](C)CO)C(=O)c2ccccc2-c2ccccc2CO[C@H]1CN(C)S(=O)(=O)c1ccc(C(F)(F)F)cc1 | active: 108%
CO[C@H]1CN(C)C(=O)c2cc(NC(=O)NC3CCCCC3)ccc2OC[C@H](C)N(CCc2ccccc2)C[C@@H]1C | inactive: 86%
C[C@H]1CN([C@@H](C)CO)C(=O)c2cccc(NS(=O)(=O)c3cn(C)cn3)c2O[C@@H]1CN(C)Cc1ccc(C(=O)O)cc1 | inactive: 28.8%

SMILES | inhibition
C[C@H]1CN([C@@H](C)CO)S(=O)(=O)c2ccc(-c3ccncc3)cc2O[C@H]1CN(C)C(=O)c1ccc2c(c1)OCO2 | active: 102%
COc1ccc(S(=O)(=O)Nc2ccc3c(c2)C(=O)N([C@H](C)CO)C[C@H](C)[C@H](CN(C)S(=O)(=O)c2ccc(Cl)cc2)OCCCC[C@H](C)O3)cc1 | inconclusive: 96.4%
CC(C)CC#Cc1cnc2c(c1)C(=O)N([C@@H](C)CO)C[C@@H](C)[C@H](CN(C)Cc1ccc(F)cc1)O2 | inconclusive: 106%
O=C(C[C@H]1CC[C@H]2[C@@H](COC[C@H](O)CN2Cc2cc(F)ccc2F)O1)NCc1ccc(Cl)cc1 | inconclusive: 96.3%
C[C@@H]1CN([C@H](C)CO)C(=O)c2cccc(NS(=O)(=O)c3cn(C)cn3)c2O[C@@H]1CN(C)C(=O)Nc1ccc(C(F)(F)F)cc1 | inactive: -84.2%
C[C@@H]1CN([C@@H](C)CO)C(=O)CCCn2cc(nn2)CO[C@@H]1CN(C)C(=O)Nc1ccccc1 | inconclusive: 118%
COc1ccc(C#Cc2ccc3c(c2)O[C@H](CN(C)C(=O)NC2CCCCC2)[C@H](C)CN([C@@H](C)CO)S3(=O)=O)cc1 | inconclusive: 107%
COCC(=O)NC[C@H]1[C@H](c2ccc(C3=CCCC3)cc2)[C@H](CO)N1C(C)=O | inconclusive: 96%
C[C@@H]1CN([C@H](C)CO)C(=O)c2c(c3ccccc3n2C)-c2ccccc2CO[C@@H]1CN(C)C | inconclusive: 106%
C[C@@H]1CN([C@@H](C)CO)C(=O)c2cc(NC(=O)NC3CCCCC3)ccc2O[C@H]1CN(C)Cc1ccc(Cl)c(Cl)c1 | inconclusive: 95.5%
COc1cccc(S(=O)(=O)Nc2ccc3c(c2)OC[C@H](C)N(Cc2ccccc2F)C[C@H](C)[C@H](OC)CN(C)C3=O)c1 | inconclusive: 84.3%
C[C@@H]1CN([C@H](C)CO)C(=O)c2cccc(NC(=O)Nc3ccc(C(F)(F)F)cc3)c2O[C@H]1CN(C)Cc1ccc(Cl)c(Cl)c1 | inconclusive: 127%
C[C@@H]1CN([C@@H](C)CO)C(=O)c2cc(NC(=O)Nc3cccc4ccccc34)ccc2O[C@@H](C)CCCCO[C@H]1CN(C)Cc1ccncc1 | inactive: 55.3%
C[C@@H]1CN([C@H](C)CO)S(=O)(=O)c2ccc(C#Cc3ccccc3)cc2O[C@@H]1CN(C)C(=O)Cc1ccccn1 | inconclusive: 93.8%
C[C@@H]1CN([C@@H](C)CO)C(=O)CCCn2cc(nn2)CO[C@H]1CN(C)C(=O)C1CC1 | inconclusive: 110%
COc1ccc(CN(C)C[C@H]2OCCCC[C@@H](C)Oc3ccc(NC(=O)Nc4cccc5ccccc45)cc3C(=O)N([C@H](C)CO)C[C@H]2C)cc1 | inactive: 118%
Cc1noc(C)c1S(=O)(=O)Nc1ccc2c(c1)CC(=O)N([C@@H](C)CO)C[C@@H](C)[C@@H](CN(C)S(=O)(=O)c1ccc(Cl)cc1)O2 | inconclusive: 103%
COc1ccc(C#Cc2cnc3c(c2)C(=O)N([C@@H](C)CO)C[C@@H](C)[C@@H](CN(C)C(=O)Nc2cccc(OC)c2)O3)cc1 | inconclusive: 84.2%
C[C@@H]1CN([C@@H](C)CO)S(=O)(=O)c2ccc(C#CC3CC3)cc2O[C@H]1CN(C)Cc1ccccc1F | active: 101%

SMILES | inhibition
Cc1noc(C)c1NC(=O)Nc1cccc2c1O[C@H](CN(C)Cc1ccc3c(c1)OCO3)[C@H](C)CN([C@@H](C)CO)C2=O | inactive: -32%
C[C@@H]1CCCCO[C@@H](CN(C)C(=O)c2ccccc2)[C@H](C)CN([C@H](C)CO)C(=O)c2cc(NC(=O)Nc3ccc(C(F)(F)F)cc3)ccc2O1 | inconclusive: 121%
C[C@@H]1CN([C@@H](C)CO)C(=O)c2cc(C3=CCCCC3)cnc2O[C@@H]1CN(C)Cc1ccccc1 | inconclusive: 96.1%
C[C@@H]1CN([C@@H](C)CO)C(=O)c2cc(NS(=O)(=O)c3ccc(F)cc3)ccc2O[C@@H](C)CCCCO[C@@H]1CN(C)Cc1ccccc1 | active: 105%
CCc1csc(N2[C@H](C#N)[C@H](c3ccc(C#Cc4ccc(F)cc4)cc3)[C@H]2CO)n1 | inactive: 93.5%
Cc1ccc(S(=O)(=O)N(C)C[C@H]2OCCCC[C@@H](C)Oc3ccc(NC(=O)C4CCCCC4)cc3C(=O)N([C@H](C)CO)C[C@H]2C)cc1 | inactive: 46.7%
C[C@H](CO)N1C[C@H](C)[C@@H](CN(C)Cc2ccncc2)Oc2ccc(NC(=O)Cn3cnnn3)cc2CC1=O | inactive: 17.9%
CCC(=O)N1CCCCN2[C@@H](CO)[C@@H](c3ccc(C#Cc4ccccc4F)cc3)[C@@H]2C1 | active: 113%
O=C(c1ccccc1F)N1CC[C@@H]2[C@@H](CO)Nc3ccc(C#Cc4ccccc4)cc3[C@@H]21 | inconclusive: 99.6%
CC(C)NC(=O)N(C)C[C@H]1Oc2cc(C#Cc3cccc(F)c3)ccc2S(=O)(=O)N([C@@H](C)CO)C[C@@H]1C | active: 116%
CCCC#Cc1ccc2c(c1)O[C@H](CN(C)Cc1ccccn1)[C@@H](C)CN([C@@H](C)CO)S2(=O)=O | inconclusive: 101%
CC(C)C#Cc1ccc2c(c1)O[C@@H](CN(C)C(=O)C1CCCCC1)[C@@H](C)CN([C@@H](C)CO)S2(=O)=O | inconclusive: 95.1%
Cc1ccccc1S(=O)(=O)N[C@@H]1CC[C@H](CCn2cc(Cc3ccccc3)nn2)O[C@H]1CO | inactive: 7.18%
C[C@@H]1CN([C@H](C)CO)C(=O)c2ccccc2-c2ccccc2CO[C@H]1CN(C)S(=O)(=O)c1cccc(C#N)c1 | inconclusive: 95.1%
O=C(Nc1ccc2c(c1)[C@@H]1C[C@H](CC(=O)N3CCOCC3)O[C@@H](CO)[C@@H]1O2)c1ccc2c(c1)OCO2 | active: 103%
C[C@@H]1CCCCO[C@@H](CN(C)Cc2ccc(Cl)c(Cl)c2)[C@H](C)CN([C@H](C)CO)C(=O)c2cc(NC(=O)CCC(F)(F)F)ccc2O1 | inconclusive: 92.5%
C[C@@H]1CN([C@@H](C)CO)C(=O)c2cc(NC(=O)C3CCCCC3)ccc2O[C@H]1CN(C)Cc1ccc(-c2ccccc2)cc1 | active: 110%
COc1ccc(NC(=O)Nc2ccc3c(c2)C(=O)N([C@H](C)CO)C[C@@H](C)[C@H](CN(C)Cc2ccc(Cl)c(Cl)c2)OCCCC[C@H](C)O3)cc1 | active: 121%
C[C@H]1CN([C@@H](C)CO)S(=O)(=O)c2ccc(-c3cccc(F)c3)cc2O[C@H]1CN(C)S(C)(=O)=O | active: 138%

From PubChem BioAssay AID624255 (Broad Institute, 2012)
